The record followed here is the supplement of paper PMC4166925.

± gives the standard deviation of the averaged measurements. In all, about 33,000 sequences were measured (“E-score (dimensionless, -0.5 to 0.5)”: median about -0.049, highest 2% from about 0.37 on). Some of the results follow.

In this assay the test system is T1, PmTbr T-box DNA-binding domain (GST fusion).
T1 sequence: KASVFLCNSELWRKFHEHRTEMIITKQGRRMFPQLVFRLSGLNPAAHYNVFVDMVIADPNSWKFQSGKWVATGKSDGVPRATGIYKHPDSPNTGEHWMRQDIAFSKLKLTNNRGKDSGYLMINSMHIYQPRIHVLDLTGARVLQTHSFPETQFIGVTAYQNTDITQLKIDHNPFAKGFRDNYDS
The assay can be described thus: PBM E-score of 8-mer (E-score (dimensionless, -0.5 to 0.5)); Tbr is Tbrain of the sea star Patiria miniata (Pm) or the sea urchin Strongylocentrotus purpuratus (Sp); higher = stronger binding preference; most listed sequences are background and not binding sites. The settings on record: the construct has about 5 more residues each side. The method in brief: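 Using the Universal PBM Analysis Suite, every ungapped 8-mer received an enrichment E-score averaged over duplicate arrays. Probe intensities came from double-stranded Universal Agilent oligonucleotide arrays incubated with 200 nM GST-fused Tbr T-box DNA-binding domain in PBS (pH 7.5). That protein was expressed in BL21 E. coli at 20 °C and purified by glutathione affinity chromatography.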
In the case of GGCTACGA, the “PBM E-score of 8-mer” value was -0.103 ± 0.078. The figure for AGGACCCA is -0.152 ± 0.054; for CCATGCGC it is -0.121 ± 0.11.

Turning to AATTGGAC, the “PBM E-score of 8-mer” value was -0.191 ± 0.0088. AATGTACA: the “PBM E-score of 8-mer” value is -0.164 ± 0.0098.

Consider CCTAGTAA, for which the “PBM E-score of 8-mer” value is 0.0527 ± 0.056. As for CATCATCC, the “PBM E-score of 8-mer” value was -0.208 ± 0.038. The figure for GGTGCACC is -0.189 ± 0.13; for CAGAATCA it is -0.0423 ± 0.097; for AACTATAG it is -0.14 ± 0.093.

For the sequence CTCGACCA, the “PBM E-score of 8-mer” value was -0.0639 ± 0.019.

Turning to GTTCTTAA, the “PBM E-score of 8-mer” value is -0.204 ± 0.026. For the sequence CTTTCTGC, the “PBM E-score of 8-mer” value was 0.0111 ± 0.011. The result for CTTAATCC reads -0.106 ± 0.034; that for CATCGGTA, -0.0771 ± 0.098; that for GCAGTCCC, -0.103 ± 0.08. The result for GGGGTGAA reads 0.0941 ± 0.04; that for ATTGGTGG, 0.155 ± 0.063; that for ACGTACAT, 0.0904 ± 0.023. For the sequence GTCATAGA, the “PBM E-score of 8-mer” value is -0.118 ± 0.0043. The figure for CCGTGAAG is 0.153 ± 0.011; for CGCTCAAG it is -0.196 ± 0.068; for TCCCAACA it is 0.187 ± 0.057. On to CCTCAACA, for which the “PBM E-score of 8-mer” value is -0.0516 ± 0.063.

On to ACCCAGTC, for which the “PBM E-score of 8-mer” value is -0.234 ± 0.046. Take CGAAGCAA: the “PBM E-score of 8-mer” value stood at 0.0452 ± 0.014.

Take CAGTTCCA: the “PBM E-score of 8-mer” value is -0.091 ± 0.0048.

As to CACACTGC, the “PBM E-score of 8-mer” value came to 0.168 ± 0.039.

With AGTCCTAT, the “PBM E-score of 8-mer” value is -0.257 ± 0.058. The figure for CGAACCAA is -0.0599 ± 0.095; for AAAGTTCG it is -0.0669 ± 0.016. For the sequence GGACTTAA, the “PBM E-score of 8-mer” value is -0.202 ± 0.013. The figure for CCCGCGAG is 0.243 ± 0.058; for AAAATCAC it is 0.28 ± 0.04. The figure for AAGGTGAA is 0.185 ± 0.013; for AGTCAAGA it is -0.165 ± 0.048; for GTAGAAAC it is -0.211 ± 0.011. For ATTTGCTA, the “PBM E-score of 8-mer” value stood at 0.224 ± 0.081. The figure for AAAATTTT is 0.16 ± 0.14; for AACCGTAG it is -0.116 ± 0.056. The result for CGAAAAAA reads 0.00041 ± 0.062; that for CTTACCTC, 0.044 ± 0.013. Regarding ACGCTGCG, the “PBM E-score of 8-mer” value was determined as 0.0804 ± 0.011. The result for ATCCCAGC reads -0.157 ± 0.078. The result for TCAGAGGA reads 0.0312 ± 0.088; that for CGCTGCAG, -0.0899 ± 0.024. The result for AAGTAGTC reads -0.235 ± 0.039; that for CAAGGCCG, -0.0395 ± 0.021. Turning to GATGTTAC, the “PBM E-score of 8-mer” value was determined as 0.0974 ± 0.051. In the case of AGCCACTC, the “PBM E-score of 8-mer” value is -0.255 ± 0.025.

Consider GGCATAGA, for which the “PBM E-score of 8-mer” value was -0.227 ± 0.0031. The result for CGTCCCTC reads -0.219 ± 0.054; that for CCGTTTCC, -0.0135 ± 0.022.

In the case of AAGTGGCT, the “PBM E-score of 8-mer” value was determined as 0.0687 ± 0.0083. For the sequence GCAGACTA, the “PBM E-score of 8-mer” value was -0.14 ± 0.053. The figure for GGGATGGA is -0.276 ± 0.027; for TAACGTGA it is 0.173 ± 0.041; for CCGAAAGC it is -0.0489 ± 0.072.

In the case of CATGTTCG, the “PBM E-score of 8-mer” value was -0.0838 ± 0.11. The figure for GCATATCA is -0.00379 ± 0.037. The figure for GCCTTTCC is -0.0329 ± 0.075; for GGAAACCC it is -0.112 ± 0.033; for GCGTTAAA it is 0.3 ± 0.0074. The figure for AAACCAAT is -0.223 ± 0.043; for CAGCTAAA it is -0.0925 ± 0.0072; for CAACATGA it is 0.0353 ± 0.044. Consider AGCAGTAT, for which the “PBM E-score of 8-mer” value was -0.068 ± 0.0045.

As for AACGTATT, the “PBM E-score of 8-mer” value amounted to 0.0326 ± 0.037. The result for GGGGAGAC reads -0.0476 ± 0.015. The figure for CTTCACGC is 0.356 ± 0.04; for ATCCACTA it is -0.27 ± 0.044; for CTCCCGAA it is -0.251 ± 0.045.

Regarding CACAGTGC, the “PBM E-score of 8-mer” value turned out to be 0.0691 ± 0.06. AACTCAGA: the “PBM E-score of 8-mer” value is -0.0319 ± 0.013. The result for AAAATGCA reads -0.0355 ± 0.00049.

Take CCTTTCCG: the “PBM E-score of 8-mer” value was -0.156 ± 0.035. For AACGTGAT, the “PBM E-score of 8-mer” value was 0.153 ± 0.12. The result for CCGATTGA reads -0.135 ± 0.075; that for CCATGGCG, -0.319 ± 0.066. The figure for CCAAAATC is 0.0433 ± 0.084; for AAATTTTA it is 0.052 ± 0.033. The figure for GCGCCACA is 0.2 ± 0.0055; for AGACGCCC it is -0.196 ± 0.04. On to ATGTGCCA, for which the “PBM E-score of 8-mer” value amounted to 0.375 ± 0.0048. Regarding AATTACAG, the “PBM E-score of 8-mer” value is -0.269 ± 0.055.

Turning to CCTATCCC, the “PBM E-score of 8-mer” value was determined as 0.0225 ± 0.07.
